According to the supplement of paper PMC10126150:
Sequences with one replicate were seen in a single cluster, so their values are uncertain.

Tested on: ATP
Assay: switch fluorescence ratio, 500 uM ATP over buffer (Cy3 cluster intensity, sum of 5 cycles each) (fold (ratio)); higher = stronger signal-on switching upon ATP binding; sequences stand for … in TCGTCGGCAGCGTCAGATGTGTATAAGAGACAGTTTTTTTTTTTTTTTTTTTTTTTTT…TC
Conditions: aptamer strand: ATP DNA aptamer (quencher-CACCTGGGGGAGTATTGCGGAGGAAGG + anchor), 100 nM annealed; ATP concentration: 500 uM; one replicate
In short: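 Switching-strand clusters labelled with Cy3 on a modified Illumina MiSeq flow-cell were annealed to 100 nM quencher-labelled ATP aptamer, imaged in selection buffer, and re-imaged after 15 min with 500 uM ATP at 22 °C. This was done over five cycles with NaOH stripping and re-annealing in between. The fluorescence ratio is summed target-cycle over summed buffer-cycle Cy3 intensity per cluster, averaged per switch-domain sequence, excluding clusters outside 100-1000 RFU.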
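Further: ATP exposure 15 min at 22 °C before imaging.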

AACTGTGTGA
switch fluorescence ratio: 0.975

TTATCAAGTC
switch fluorescence ratio: 1.05

GTCACAGCCC
switch fluorescence ratio: 1.04

GGCTGAGGAT
switch fluorescence ratio: 0.959

AAAGAATATT
switch fluorescence ratio: 1.02

GCACCTATAG
switch fluorescence ratio: 1.03

GTGCCGGGTA
switch fluorescence ratio: 1.02

TTTTAGTCCG
switch fluorescence ratio: 1.03

TATCGAAAAG
switch fluorescence ratio: 1.04

TCTATCGAT
switch fluorescence ratio: 0.94

TCCAAGGTTC
switch fluorescence ratio: 1.11

TTTCATATTA
switch fluorescence ratio: 1.02

GCGGGCGG
switch fluorescence ratio: 0.97

AATCTATTCA
switch fluorescence ratio: 1

AACGGTGGCA
switch fluorescence ratio: 0.964

TCGATGCCAC
switch fluorescence ratio: 1.21

AGGTACTTT
switch fluorescence ratio: 1.06

GTTAGAATTT
switch fluorescence ratio: 1.02

GATGACCGCG
switch fluorescence ratio: 1.05

TTCGGCGCAA
switch fluorescence ratio: 1.01

TGAAACTCTT
switch fluorescence ratio: 0.993

CGACACCTGC
switch fluorescence ratio: 1.15

GTAGTGGTTT
switch fluorescence ratio: 0.96

TGAAAGGGCG
switch fluorescence ratio: 1.01

AGGACGAAAG
switch fluorescence ratio: 1.03

CAAGTCTCGA
switch fluorescence ratio: 1.01

TGAGTATTG
switch fluorescence ratio: 1.02

CTGCTAGGA
switch fluorescence ratio: 1.01

AAATAGGAGT
switch fluorescence ratio: 1.03

CCAGTTTAG
switch fluorescence ratio: 0.962

GAGAAACTTT
switch fluorescence ratio: 0.998

AGTAGTCGCA
switch fluorescence ratio: 0.927

CGGGCCGCAA
switch fluorescence ratio: 5.6

CCTTGGCCTT
switch fluorescence ratio: 1.1

GTATCGATAT
switch fluorescence ratio: 1.01

TACAGACTAC
switch fluorescence ratio: 1.28

AAGTAGAAGA
switch fluorescence ratio: 1.01

CCTAACTTT
switch fluorescence ratio: 0.954

GCAGTCATAA
switch fluorescence ratio: 1.04

ACCAAAATTC
switch fluorescence ratio: 2.11

CGGTCTCCGC
switch fluorescence ratio: 1.87

CGTAAGCGC
switch fluorescence ratio: 1.15

GTGAGAGTAA
switch fluorescence ratio: 1

AGAGATTCGC
switch fluorescence ratio: 1

GGATCGGGAG
switch fluorescence ratio: 0.974

GAGTAGACGG
switch fluorescence ratio: 0.933

GCAAATGGGT
switch fluorescence ratio: 1

GGAGAATAGG
switch fluorescence ratio: 1.2

GGCACAGCTT
switch fluorescence ratio: 0.992

TTAGGTACTC
switch fluorescence ratio: 1.1

ATTGGTGCCA
switch fluorescence ratio: 0.981

CATCACTTCA
switch fluorescence ratio: 1.06

CGCTTGTA
switch fluorescence ratio: 1.02

CGTCGTTTGA
switch fluorescence ratio: 1.09

GGAGGCCTA
switch fluorescence ratio: 1.02

GGAAACGGGA
switch fluorescence ratio: 1.06

GGTTGCCTTA
switch fluorescence ratio: 0.828

CCGGCTATTG
switch fluorescence ratio: 1.02

TGGCTGATAA
switch fluorescence ratio: 1.01

CGCGTTTCT
switch fluorescence ratio: 1.01

TAACACTTGG
switch fluorescence ratio: 1.02

AATAGTCGTA
switch fluorescence ratio: 0.985

CTGTCGGC
switch fluorescence ratio: 1.02

CTAAAGTAAA
switch fluorescence ratio: 0.998

TTATAAAAGC
switch fluorescence ratio: 0.968

GTGTGAGGGG
switch fluorescence ratio: 1.05

GCCCACAAAG
switch fluorescence ratio: 0.973

AGGGCGTGTC
switch fluorescence ratio: 0.963

GGCTTACGGT
switch fluorescence ratio: 0.967

CCGCGCGGAT
switch fluorescence ratio: 1.51

CCTTAAAAGA
switch fluorescence ratio: 1.01

TTTAGCAGTG
switch fluorescence ratio: 0.992

GACATAATT
switch fluorescence ratio: 1.01

TCAAACGATT
switch fluorescence ratio: 1

CATTGTAGCC
switch fluorescence ratio: 0.973

GTGGGAGCG
switch fluorescence ratio: 0.981

GATCAAGGTG
switch fluorescence ratio: 1.05

GTTTCGCA
switch fluorescence ratio: 1.06

CTGCATGAAA
switch fluorescence ratio: 0.967

CGAGAAACGC
switch fluorescence ratio: 1

TTAGGAGACG
switch fluorescence ratio: 1.11

GGGAGTCTCG
switch fluorescence ratio: 0.966

GATACCGAGA
switch fluorescence ratio: 1.06

TAATCAGGA
switch fluorescence ratio: 1

GCGGCGACAT
switch fluorescence ratio: 1.57

CACTGGATTG
switch fluorescence ratio: 1

ATTACCATGG
switch fluorescence ratio: 1.08

ATCTCACGAC
switch fluorescence ratio: 1.08

AATTGCGAGA
switch fluorescence ratio: 1.03

TTGTAAGGGA
switch fluorescence ratio: 1.01

GCGCCTCACT
switch fluorescence ratio: 1.04

CTTTGGGATT
switch fluorescence ratio: 1.02

GTCGACGTAA
switch fluorescence ratio: 1.06

AAGGGGGTA
switch fluorescence ratio: 0.968

TATTTGTGGC
switch fluorescence ratio: 1

GTTTAGGGAC
switch fluorescence ratio: 1.04

CAACCTCTTG
switch fluorescence ratio: 1.03

GGACAGCCCG
switch fluorescence ratio: 1.15

ATACAGGCCT
switch fluorescence ratio: 1.03

CTGTGTAGGG
switch fluorescence ratio: 0.981

AAATTCGATC
switch fluorescence ratio: 1.03

ATGATTGTGT
switch fluorescence ratio: 1

TTTGGGGCCA
switch fluorescence ratio: 0.995

TTGAATATA
switch fluorescence ratio: 0.962

TGACATGGTA
switch fluorescence ratio: 1.01

TCTTTTCTC
switch fluorescence ratio: 1.02

AAGCAAAATT
switch fluorescence ratio: 0.983

CATAGGCGTG
switch fluorescence ratio: 1.03

CGTAGTCGAG
switch fluorescence ratio: 1.01

ACATTATTAA
switch fluorescence ratio: 1.04

GTTTGATTAA
switch fluorescence ratio: 1.05

TAATTATAAA
switch fluorescence ratio: 0.985

AGAAACCTAA
switch fluorescence ratio: 1.11

GGTTCCTCAA
switch fluorescence ratio: 1.05

TATATGTTGA
switch fluorescence ratio: 0.994

TCTTTTTATT
switch fluorescence ratio: 0.943

CCTCAGTGGT
switch fluorescence ratio: 1.02

ATAAATTAGC
switch fluorescence ratio: 1.01

GGGTCCAGC
switch fluorescence ratio: 0.974

GGACTTACCA
switch fluorescence ratio: 1.06

TGCGGTAGG
switch fluorescence ratio: 1

TTTGTAATAG
switch fluorescence ratio: 1.03

ATCCGCGGTA
switch fluorescence ratio: 1.13

GCTTTGCATG
switch fluorescence ratio: 1.01

ACATTTGTGT
switch fluorescence ratio: 1.01

GAAATGCGCC
switch fluorescence ratio: 1.05

TTCTGTTTC
switch fluorescence ratio: 1

GTTTGAGACT
switch fluorescence ratio: 1.04

TGACGTGGGC
switch fluorescence ratio: 1.14

TTACGGAAAT
switch fluorescence ratio: 1.05

TCATAGAAGA
switch fluorescence ratio: 1.03

ATCTGCATAG
switch fluorescence ratio: 1.52

GTTCGATCGA
switch fluorescence ratio: 0.963

ATTATTTGAG
switch fluorescence ratio: 0.976

GGGTCTAGAA
switch fluorescence ratio: 0.977

CTCTCCTTTA
switch fluorescence ratio: 1.06

GAGAAGGTAA
switch fluorescence ratio: 0.982

ATAGTGTTTG
switch fluorescence ratio: 0.985

CGTCAGAGG
switch fluorescence ratio: 1

GAATGAGAAG
switch fluorescence ratio: 1.01

TGTGAGGGCT
switch fluorescence ratio: 1.12

TCGCCTCGTA
switch fluorescence ratio: 1

ACTTTCAGAC
switch fluorescence ratio: 1.02

CAGGTTTCGA
switch fluorescence ratio: 0.955

ATTTCAGATC
switch fluorescence ratio: 0.955

CGATTGACAC
switch fluorescence ratio: 1.1

CCCATTGTCA
switch fluorescence ratio: 0.942

GACGTTTTCT
switch fluorescence ratio: 1.14

GGGAGCTATG
switch fluorescence ratio: 0.929

CCACTGGTCT
switch fluorescence ratio: 1.03

GGTTAGGGCA
switch fluorescence ratio: 0.98

AGGATTACAA
switch fluorescence ratio: 1.04

AACGGATCAG
switch fluorescence ratio: 1.04

TTGGGTGGG
switch fluorescence ratio: 0.975

CAATGTCTTG
switch fluorescence ratio: 1.02

GGAGCCGGTA
switch fluorescence ratio: 0.964

GGTTGGATAA
switch fluorescence ratio: 1

TGGTGTGATC
switch fluorescence ratio: 1.06
